Consider six molecules from publication PMC12136788.

The other results are listed elsewhere or left out.

B1: chr2:155483634:155483635:-_ENSMUSG00000038324_ENSMUST00000041059|perfect_dup|FALSE|FALSE (ssRNA)
RNA: GGGAGUUCUACAGUCCGACGAUCGGUGACAGCCAGAAUCCGGCAGAAAUUAGCGAGCUGCUGCUGAUCGAAAUUGGAUACUAAGGAACUCAGAUUGGGGACUUCAUCUAGUCGGAUCAUUUCCUUUUUAACACCCAAAAUAUCCAACAGAGGAUUGAGCAUCA
B2: chr12:32871593:32871594:+_ENSG00000087470_ENST00000452533|hu_hu|FALSE|FALSE (ssRNA)
RNA: GGGAGUUCUACAGUCCGACGAUCCAAUACAUCCAUGGCAUCAGUACCCGCAUCCAUGAGAUCAAGUUUAGUGAUUACAGCUAGGGUUCUGCGACCAUCUGGAUCUACCUCUCUUGAAAUUUUAAGUGCCUCUGAUGUUGCCAUCAACAGAGGAUUGAGCAUCA
B3: chr4:88366126:88366127:-_ENSMUSG00000070923_ENSMUST00000094993|mus_hu|FALSE|FALSE (ssRNA)
RNA: GGGAGUUCUACAGUCCGACGAUCUGCUGAAAGAGGUGAUUCUCUAGAAGGUGACCCAGGGUUUUCUUCAGGUGGAAAAACUGUGAGUGUACAGGCUCGAAUGCCACCAAGUGACUCUGGAAGAUCAAAAACUUUAUGCCACUCCAACAGAGGAUUGAGCAUCA
B4: chr4:95690885:95690886:+_ENSMUSG00000028572_ENSMUST00000156910|mus_mus|mus_mus_mus_hu_False|98_98 (ssRNA)
RNA: GGGAGUUCUACAGUCCGACGAUCUUUAGAAAAUGUUAAUGUUAAAUCUAAAAUAUUUUCAAAGGCUUAUUUUAUUUUACCAGAAGUCACAGGCAAGCAGACACUACAAGAAUAUAUGAAAAUGAAACUCAACAAUAUAACUGUCAACAGAGGAUUGAGCAUCA
B5: chr10:84137372:84137373:+_ENSMUSG00000034453_ENSMUST00000077175|mus_mus|FALSE|FALSE (ssRNA)
RNA: GGGAGUUCUACAGUCCGACGAUCGUAAGAGAGCUCUUCUCCACAUAAUAAAUUCACAUCUUCUACUCCCAAGUUCCCAGCUAACUUAAUAAUGGGUCCAUCUUCCAUGUCAGUUGUUAUAUGUGUCAUGAGGGCCAAGUUCUUCAACAGAGGAUUGAGCAUCA
B6: chr11:19991362:19991363:-_ENSMUSG00000020152_ENSMUST00000000137|mus_hu|FALSE|FALSE (ssRNA)
RNA: GGGAGUUCUACAGUCCGACGAUCCAAAGUCAGAACUGCCUGGAUGGCUACAUAUACACCGGAAAACUGGUAAGUUUCAAACAUUACCUCUACAAUCUUCUCUCUGUUUUUGGUUGGGUUCAUAGGAGGUUCUGUGAGUAAGAUCAACAGAGGAUUGAGCAUCA

The experiment deals with T1, UNK ZnF1-3 (human, UniProt Q9C0B0 31-174).
T1 sequence: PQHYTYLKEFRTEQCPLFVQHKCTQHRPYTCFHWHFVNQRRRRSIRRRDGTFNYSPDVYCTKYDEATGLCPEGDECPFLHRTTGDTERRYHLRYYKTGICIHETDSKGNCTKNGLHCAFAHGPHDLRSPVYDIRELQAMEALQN
The experiment is described as follows: nsRBNS (natural sequence RNA bind-n-seq); RBNS binding buffer (assumed for nsRBNS): 25 mM Tris pH 7.5, 150 mM KCl, 3 mM MgCl2, 0.01% Triton X-100, 500 ug/ml BSA, 20 U/ml SUPERase-In, 4 C; UNK is unkempt and MSI1 is Musashi-1; names of the RNAs are library labels; protein concentration not given here; high values mean tight binding.
B1 yielded a binding signal of 0.94 enrichment R. As for B2, the binding signal is 1.3 enrichment R.

B3 came in with a binding signal of 1.17 enrichment R. On to B4, for which the binding signal turned out to be 1.8 enrichment R. B5 had a binding signal of 1.17 enrichment R.

Turning to B6, the binding signal amounted to 1.59 enrichment R.
